Experimental data published in the supplement of paper PMC10338343.
± gives the standard deviation. In all, about 5,500 sequences were measured (“pre-steady-state target cleavage rate”: median about 0.1, highest 2% from about 0.64 on). This is a selection; strong and weak results do not stand in their true shares.

Test system: MIWI (PIWIL1) piRISC loaded with piRNA #2 (30 nt)
Assay: pre-steady-state target cleavage rate (min^-1); MIWI and MILI are mouse PIWI proteins and EfPiwi is from a freshwater sponge; tags in brackets are library labels; higher = faster piRNA-guided slicing of the target
Conditions: guide: piRNA #2 5'p-UUAGGUAACCCAGUAGAUCCAGAGGAAUUC; auxiliary factor: 500 nM mouse GTSF1
Summary of the method: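 For Cleave-'n-Seq, a transcribed, DNA-blocked target RNA library […] met 1 nM active affinity-purified piRISC with one synthetic guide at 33 °C for 0–8 or 0–960 min in HEPES–potassium acetate buffer, with or without 500 nM GTSF1 partner protein. Uncleaved targets were sequenced and normalised to depth and weakly complementary targets, with three trials pooled and k3 capped at 0.0001 min^-1. A burst-and-steady-state fit supplied the pre-steady-state cleavage rate.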

Point of comparison: CUUAAGGUCUGGAUGUACUGGGUUACCUAA, “pre-steady-state target cleavage rate” value 0.168 ± 0.052. Against it:
- CAAUUCGUGUGGAUCUACUGGGUUACCUAA — higher, 0.485 ± 0.037
- CUUAAGCUCUGGAUCUACAGGGUUACGUAA — lower, 0.0869 ± 0.0095
- CAAUUCCUCUGGAUGUACUGGCUUACCUAA — lower, 0.09 ± 0.026
- CUUAAGGAGAGGAUCUACUGGGUUACCUA — lower, 0.0163 ± 0.0068
- CUUAAGGUCUGGAUCUACUGGUUUACCUAA — within error, 0.136 ± 0.019
- GAAUUCCUCUGGAUCUACUGGGCUACCUAA — within error, 0.116 ± 0.021
- CAAUUCCUCUGGAUCUACUGGGUUAUCCUAA — higher, 0.618 ± 0.071
- GAAUUCCUCUGGAUCUACUGGGAAUCCUAA — within error, 0.121 ± 0.039
- CUUAUCCUCAGGAUCAACUGGGUUACCUAA — higher, 0.422 ± 0.052
- CUAUUCCUCUGGAUCUAUGGGUUACCUAA — lower, 0.00989 ± 0.0029
- GAAUUCCUCAGGAUCUACAGGGUUACCUAA — higher, 0.295 ± 0.031
- CUAUUCCUCUGGAUCUACUGGGAUAGCUAA — within error, 0.229 ± 0.053
- CUUAAGGAGUGGAUCUACUGGGUUACCUCA — within error, 0.0927 ± 0.027
- CAAUUCCUCUGGAUCUACUGGGUUACCCUAA — within error, 0.3 ± 0.083
- CUUUUCCUCUGCAUCUACUGGGUAACCUAA — within error, 0.169 ± 0.018
- CUUAAGGACUGGAUCUACUGGGUUACCUUAA — within error, 0.134 ± 0.05
- CUUAAGGACUGGUUCUACUGGGUUACGUAA — within error, 0.212 ± 0.076
- CUUAACCUCUGGGUCUACUGGGUUACCUAA — higher, 0.317 ± 0.033
- CUUUUGCUCUGGAACUACUGGGUUACCUAA — within error, 0.248 ± 0.031
- CAAUUCCACUGCAUCUACUGGGUUACCUAA — higher, 0.459 ± 0.034
- CUUUUCCUCUCGAUCUAGUGGGUUACCUAA — higher, 0.311 ± 0.024
- CAUAACCUCUGGAUCUACUGGGUUACCUAA — within error, 0.234 ± 0.033
- GAAAUCCUCAGGAUCUACUGGGUUACCUAA — higher, 0.446 ± 0.051
- CAAAUCCUCUGGAUGUACUGGGUUACCUAA — higher, 0.515 ± 0.048
- CUUAAGGAGACCUUCUACUGCGUUACCUAA — lower, 0.00369 ± 0.0035
- CUAUCCCUCUGGAUCUACUGGGUUACCUAA — higher, 0.352 ± 0.045
- CUUUUCCUCUGGAUCUACUGGGAAACCUAA — within error, 0.25 ± 0.045
- CUUUUCCUCUGGAUCAACUGGGUUACCUAA — higher, 0.453 ± 0.049
- CUUAUCCUGUGCAUCUACUGGGUUACCUAA — higher, 0.264 ± 0.022
- GAAUUCGUGUGGAUCUACUGGGUUACCUAA — higher, 0.476 ± 0.037
- CUUUUCCACUGGUUCUACUGGGUUACCUAA — higher, 0.446 ± 0.03
- CAAUUCCUGUGGAUCUACUGGGAUACCUAA — higher, 0.344 ± 0.05
- CUUUUCCUCUGGAUCUACUGCGAUACCUAA — within error, 0.216 ± 0.036
- CUUAACCUGUGGAUCUACAGGGUUACCUAA — higher, 0.271 ± 0.021
- CUUAUCCUCUGGAUCUACUGCGUUACGUAA — higher, 0.411 ± 0.048
- CUUAACCUCUGAAUCUACUGGGUUACCUAA — within error, 0.158 ± 0.019
- CUUAAGGUCAGGAUCUACUGGGAUACCUAA — lower, 0.00826 ± 0.0056
- CUUUUGCUCAGGAUCUACUGGGUUACCUAA — higher, 0.432 ± 0.042
- CUUAACCUCUGGAUCUACUGGGUUACAUAA — higher, 0.6 ± 0.034
- CAUUUCCUCUGGAACUACUGGGUUACCUAA — higher, 0.612 ± 0.044
- CUUAUCCUCUGGAUCUAGUGGGUUACCUUA — within error, 0.135 ± 0.02
- CUAUUCCUCUGGUUCUACUGGCUUACCUAA — within error, 0.155 ± 0.016
- GAAUUCCUCUGGAUCUACUGGCUUACCAAA — within error, 0.1 ± 0.03
- CUAUUCCUCUGGAUCUACUGGGUCUACCUAA — higher, 0.493 ± 0.044
- CUUAAGCUCUGGAUCGUACUGGGUUACCUAA — lower, 0.00549 ± 0.0047
- CUAUUCCUCUGGAUCUACUGGGUUACCGUAA — higher, 0.323 ± 0.046
- CUUAAGCUCUGGAUCUACUGGGUUACGAUA — lower, 0.0839 ± 0.013
- CAAUUCCUCUGGAUCUACUGUGUUACCUAA — higher, 0.751 ± 0.075
- CUUUUCCUCUGGUACUACUGGGUUACCUAA — higher, 0.385 ± 0.051
- CUUAUCCACUGGAUCUUCUGGGUUACCUAA — higher, 0.41 ± 0.054
- CAUUUCCUCUGCAUCUACUGGGUUACCUAA — higher, 0.509 ± 0.04
- GAAUUCCUCUGGAUGUAGUGGGUUACCUAA — lower, 0.0963 ± 0.016
- CUAUUCCUCUGGACCUACUGGGUUACCUAA — within error, 0.139 ± 0.02
- CUUAUCCCCUGGAUCUACUGGGUUACCUAA — higher, 0.423 ± 0.024
- CUUAUCCUCUGGAUCCACUGGGUUACCUAA — within error, 0.248 ± 0.038
- CUUAAGCUCUCGAUCUACUGGGUUACGUAA — higher, 0.516 ± 0.034
- CUUAAGGUCUGGAUCAACUGGGUUUCCUAA — lower, 0.0708 ± 0.014
- CUUUUCCUGUGGAUCUACUGGGAUACCUAA — higher, 0.28 ± 0.026
- CUUAAGCUCUGGAUCUACUGGGUUUCCAAA — lower, 0.0329 ± 0.009
- CUUAACCUCUGGCAUCUACUGGGUUACCUAA — within error, 0.117 ± 0.028
- CUUAACCUCUGGAUCUACUCGGUUACGUAA — lower, 0.0848 ± 0.023
- CUUUUCCACUGGAUCUUCUGGGUUACCUAA — higher, 0.371 ± 0.038
- CUUUUCCUCUGGAUCUAUUGGGUUACCUAA — higher, 0.271 ± 0.036
- CAAUUCCUCUGGAUCUACUGGGUAUCCUAA — within error, 0.196 ± 0.045
- CUAUUCCUCUGGAUCUAGUGGGUUACCUUA — within error, 0.12 ± 0.018
- CUUAAGCUCUGGAUCUACUGGGUUUCCUAA — within error, 0.1 ± 0.016
- GAAUUCCACUGGAUCAACUGGGUUACCUAA — higher, 0.634 ± 0.052
- CAAUUCCUCUGGUUCUAGUGGGUUACCUAA — higher, 0.303 ± 0.034
- CUUUUCGUCUGGAUCUAGUGGGUUACCUAA — lower, 0.0486 ± 0.0092
- CUUAAGGACUGGAUCUACUGGGUGUACCUAA — within error, 0.106 ± 0.052
- CUAUUCCUCUGGAUCUACUGGGUUUCGUAA — higher, 0.275 ± 0.048
